This is one part of the list. Interaction screen of human proteins with wild-type SARS-CoV-2 proteins by split-DHFR complementation in yeast, 1 µg/mL methotrexate. Value = fitness of the pair (three or more lineages) minus that of the viral protein without a human partner, on a scale set by negative (0) and fused positive (1) controls, mean of up to three cultures; higher = more likely to interact. Active = false discovery rate below 0.05 (one-sided t-test) in at least one culture. Nearly all pairs are not hits, and differences among them are mostly noise (correlation between cultures about 0.3); most hits were seen in one culture only. Human sequences are the Swiss-Prot entries looked up by gene name; the clone may be another isoform. NSP2 values were corrected by the authors for a growth advantage. Listed are human proteins with a hit and a random twelfth of the others.
Tests used:
Experiment in all cases: yeast fitness gain over the viral ORF with no human partner (scaled fitness); higher = more likely to interact
[1] = biological target: SARS-CoV-2 E
Experimental: (§1)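 Split mouse DHFR complementation in pooled diploid yeast: human ORFeome clones carry one fragment and viral ORFs the other; barcoded lineages compete in 1 µg/mL methotrexate and fitness is read by barcode sequencing in up to three cultures.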

[2] = biological target: SARS-CoV-2 M
Experimental: as §1

[3] = biological target: SARS-CoV-2 N
Experimental: as §1

[4] = biological target: SARS-CoV-2 NSP1
Experimental: as §1

[5] = biological target: SARS-CoV-2 NSP10
Experimental: as §1

[6] = biological target: SARS-CoV-2 NSP12
Experimental: as §1

[7] = biological target: SARS-CoV-2 NSP13
Experimental: as §1

[8] = biological target: SARS-CoV-2 NSP16
Experimental: as §1

[9] = biological target: SARS-CoV-2 NSP2
Experimental: as §1

[10] = biological target: SARS-CoV-2 NSP4
Experimental: as §1

[11] = biological target: SARS-CoV-2 NSP5
Experimental: as §1

[12] = biological target: SARS-CoV-2 NSP6
Experimental: as §1

[13] = biological target: SARS-CoV-2 NSP7
Experimental: as §1

[14] = biological target: SARS-CoV-2 NSP8
Experimental: as §1

[15] = biological target: SARS-CoV-2 NSP9
Experimental: as §1

[16] = biological target: SARS-CoV-2 ORF10
Experimental: as §1

[17] = biological target: SARS-CoV-2 ORF3A
Experimental: as §1

[18] = biological target: SARS-CoV-2 ORF3B
Experimental: as §1

[19] = biological target: SARS-CoV-2 ORF6
Experimental: as §1

[20] = biological target: SARS-CoV-2 ORF7A
Experimental: as §1

[21] = biological target: SARS-CoV-2 ORF7B
Experimental: as §1

[22] = biological target: SARS-CoV-2 ORF8
Experimental: as §1

[23] = biological target: SARS-CoV-2 ORF9B
Experimental: as §1

[24] = biological target: SARS-CoV-2 ORF9Bwu (the 73-codon ORF)
Experimental: as §1

[25] = biological target: SARS-CoV-2 S
Experimental: as §1

[26] = biological target: SARS-CoV-2 NSP14
Experimental: as §1

[27] = biological target: SARS-CoV-2 NSP15
Experimental: as §1

Measured: yeast fitness gain

B1: PRDX5, P30044 (protein)
chain: MGLAGVCALRRSAGYILVGGAGGQSAAAAARRYSEGEWASGGVRSFSRAAAAMAPIKVGDAIPAVEVFEGEPGNKVNLAELFKGKKGVLFGVPGAFTPGCSKTHLPGFVEQAEALKAKGVQVVACLSVNDAFVTGEWGRAHKAEGKVRLLADPTGAFGKETDLLLDDSLVSIFGNRRLKRFSMVVQDGIVKALNVEPDGTGLTCSLAPNIISQL
inactive: [1] -0.0327 | [2] 0.0229 | [3] -0.181 | [4] 0.0056 | [5] 0.0317 | [6] -0.22 | [7] -0.0703 | [8] 0.0217 | [9] -0.205 | [10] 0.115 | [11] 0.139 | [12] 0.0936 | [13] 0.0288 | [14] -0.0394 | [15] -0.0945 | [16] -0.00568 | [17] -0.0369 | [18] 0.0378 | [19] -0.0208 | [20] -0.00475 | [21] -0.0215 | [22] 0.0655 | [23] 0.00783 | [24] 0.0199 | [25] -0.0698

B2: EMD, P50402 (protein)
chain: MDNYADLSDTELTTLLRRYNIPHGPVVGSTRRLYEKKIFEYETQRRRLSPPSSSAASSYSFSDLNSTRGDADMYDLPKKEDALLYQSKGYNDDYYEESYFTTRTYGEPESAGPSRAVRQSVTSFPDADAFHHQVHDDDLLSSSEEECKDRERPMYGRDSAYQSITHYRPVSASRSSLDLSYYPTSSSTSFMSSSSSSSSWLTRRAIRPENRAPGAGLGQDRQVPLWGQLLLFLVFVIVLFFIYHFMQAEEGNPF
active: [21] 0.239
inactive: [1] -0.00739 | [2] 0.064 | [3] 0.116 | [4] -0.00463 | [5] 0.0222 | [6] 0.072 | [7] 0.0495 | [26] -0.0555 | [27] -0.0855 | [8] 0.00686 | [9] -0.0762 | [10] 0.362 | [11] -0.00498 | [12] 0.0625 | [13] -0.0215 | [14] 0.0368 | [15] 0.0864 | [16] 0.00966 | [17] -0.00905 | [18] -0.0124 | [19] -0.00575 | [20] 0.108 | [22] 0.0273 | [23] 0.0119 | [24] -0.0261 | [25] 0.0534

B3: NRSN2, Q9GZP1 (protein)
chain: MMPSCNRSCSCSRGPSVEDGKWYGVRSYLHLFYEDCAGTALSDDPEGPPVLCPRRPWPSLCWKISLSSGTLLLLLGVAALTTGYAVPPKLEGIGEGEFLVLDQRAADYNQALGTCRLAGTALCVAAGVLLAICLFWAMIGWLSQDTKAEPLDPEADSHVEVFGDEPEQQLSPIFRNASGQSWFSPPASPFGQSSVQTIQPKRDS
inactive: [1] 0.0316 | [2] -0.0177 | [3] 0.0988 | [4] -0.128 | [5] -0.0115 | [6] -0.0603 | [7] 0.0105 | [26] -0.211 | [8] 0.105 | [9] -0.152 | [10] -0.0189 | [11] -0.0532 | [13] 0.0552 | [14] -0.0218 | [15] 0.0389 | [16] -0.0143 | [17] -0.0155 | [18] -0.0228 | [19] -0.0617 | [20] 0.0842 | [21] -0.0237 | [22] 0.0862 | [23] 0.00781 | [24] 0.0405 | [25] 0.0375

B4: TRABD, Q9H4I3 (protein)
chain: MDGEEQQPPHEANVEPVVPSEASEPVPRVLSGDPQNLSDVDAFNLLLEMKLKRRRQRPNLPRTVTQLVAEDGSRVYVVGTAHFSDDSKRDVVKTIREVQPDVVVVELCQYRVSMLKMDESTLLREAQELSLEKLQQAVRQNGLMSGLMQMLLLKVSAHITEQLGMAPGGEFREAFKEASKVPFCKFHLGDRPIPVTFKRAIAALSFWQKVRLAWGLCFLSDPISKDDVERCKQKDLLEQMMAEMIGEFPDLHRTIVSERDVYLTYMLRQAARRLELPRASDAEPRKCVPSVVVGVVGMGHVPGIEKNWSTDLNIQEIMTVPPPSVSGRVSRLAVKAAFFGLLGYSLYWMGRRTASLVLSLPAAQYCLQRVTEARHK
inactive: [1] 0.0541 | [2] 0.082 | [3] 0.165 | [4] -0.0428 | [5] -0.0237 | [6] 0.109 | [7] 0.0244 | [26] 0.0587 | [27] 0.011 | [8] -0.0352 | [9] -0.103 | [10] 0.00276 | [11] 0.0595 | [12] -0.00315 | [13] -0.0117 | [14] -0.002 | [15] -0.129 | [16] -0.00499 | [17] -0.0266 | [18] 0.0389 | [19] 0.0561 | [20] 0.0233 | [21] -0.0531 | [22] 0.0479 | [23] 0.00261 | [24] -0.0682 | [25] 0.0421
